Here are results for six molecules from patent publication US20210322301A1, “DOSING REGIMENS FOR TREATING METAL-MEDIATED CONDITIONS” (Abfero Pharmaceuticals, Inc., priority 2016, published 2021).

For series [1] the following is noted: cited from earlier work.
The conditions of series [2]: cited from earlier work. This is another data set of the same source.
A further series has as its target albumin (Homo sapiens, UniProt P02768). The settings on record: cited from earlier work.
Series [3] in a line: 10-parameter urine dipstick analysis (glucosuria, hematuria, pH, specific gravity) after oral SP-420.
The conditions of series [4]: for Survival: oral gavage, n=5.
Setting [5] is: daily oral dosing at steady state in human patients.
[6] abbreviates: typical regimen, 3 times per day.

Where two headings read alike, the source gives them in different places.

albumin, sequence (P02768 25-609): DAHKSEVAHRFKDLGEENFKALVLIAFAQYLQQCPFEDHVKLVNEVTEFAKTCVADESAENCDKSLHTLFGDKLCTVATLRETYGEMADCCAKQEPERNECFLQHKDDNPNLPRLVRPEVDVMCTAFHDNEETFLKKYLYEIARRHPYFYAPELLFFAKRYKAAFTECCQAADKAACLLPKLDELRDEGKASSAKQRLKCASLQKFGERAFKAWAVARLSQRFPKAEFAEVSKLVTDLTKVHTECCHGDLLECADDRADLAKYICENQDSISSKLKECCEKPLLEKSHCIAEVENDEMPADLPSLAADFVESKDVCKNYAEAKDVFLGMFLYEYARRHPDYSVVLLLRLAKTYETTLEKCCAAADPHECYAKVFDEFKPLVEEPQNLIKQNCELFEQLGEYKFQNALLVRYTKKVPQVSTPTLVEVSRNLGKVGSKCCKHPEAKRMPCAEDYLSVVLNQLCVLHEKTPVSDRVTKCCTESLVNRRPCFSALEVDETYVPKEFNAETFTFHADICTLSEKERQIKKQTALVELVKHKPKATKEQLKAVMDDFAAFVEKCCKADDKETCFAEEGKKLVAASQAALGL

Regarding `CC(=O)N(O)CCCCCNC(=O)CCC(=O)N(O)CCCCCNC(=O)CCC(=O)N(O)CCCCCN` [deferoxamine], in series [1] (background), the “Half-life (in words)” value was “short half-life” and the Oral bioavailability result was “poor oral bioavailability”.

With `O=C(O)c1ccc(-n2nc(-c3ccccc3O)nc2-c2ccccc2O)cc1` [Deferasirox], in series [1] (setting [5]), the Mean elimination half-life result is “approximately 12 hours” and the “Time to peak serum concentration after the dose” value is “approximately 2 hours”. Besides, the “Fraction of patients with a persistent increase in serum creatinine of 33% or greater” value in series [2] (patients) is “Approximately one-third”. Besides, on albumin, the Albumin binding result is “highly bound to albumin”.

On to `COCCOCCOCCOc1cccc(C2=N[C@@](C)(C(=O)O)CS2)c1O` [SPD602, (S)-2-(2-hydroxy-3-(2-(2-(2-methoxyethoxy)ethoxy)ethoxy)phenyl)-4-methyl-4,5-dihydrothiazole-4-carboxylic acid], for which the Overt toxicity result in series [2] (clinical development) is “neither drug displayed overt toxicity”.

Turning to `Cc1c(O)c(=O)ccn1C` [Deferiprone], the “Elimination half-life (t1/2)” value in series [1] (background) was 1.9 h. For the same molecule, in series [1] (setting [6]), the Half-life is 2 h and the “Time to peak serum concentration” value was 1 h. The Iron chelator efficiency entry in series [2] (background) is given as “low iron chelator efficiency”.

Take `C[C@]1(C(=O)O)CSC(c2ccc(O)cc2O)=N1` [Deferitrin, 4,5-dihydro-2-(2,4-dihydroxyphenyl)-4-methylthiazole-4(S)-carboxylic acid]: the Oral bioavailability result in series [1] (background) is given as “good oral bioavailability”. The “Kidney safety finding in clinical study” value in series [2] (phase 2 study) is “kidney injury”.

Regarding `COCCOCCOc1ccc(C2=N[C@@](C)(C(=O)O)CS2)c(O)c1` [SP-420, (S)-4,5-dihydro-2-[2-hydroxy-4-(3,6-dioxaheptyloxy)phenyl]-4-methyl-4-thiazolecarboxylic acid], in series [3] (Example 2, 325 mg/kg EOD, n=5), the Glucosuria entry is on record as “not observed”. Also, in series [3] (one rat, 200 mg/kg/day SID), the “Appearance of 24-hour urine sample (FIG. 4)” value is “the top half contained a layer of frank blood”. For the same molecule, the “Kidney safety finding in clinical study” value in series [2] (phase 1-2 study, terminated early, when the dose was escalated) is on record as “kidney toxicity”. The Survival in series [4] (200 mg/kg SID, max cumulative dose 2400 mg/kg) is recorded as 4/5; in series [4] (250 mg/kg EOD, max cumulative dose 2500 mg/kg), 5/5; in series [4] (400 mg/kg EOD, max cumulative dose 2400 mg/kg), 3/5. Besides, in series [4] (Example 1, 162.5 mg/kg SID), the “Rats euthanized post-drug (weight loss, deteriorating condition)” value is “one rat in the 162.5 mg/kg SID group was euthanized 3 days post-drug”.
